Measured values as given in the supplement of paper PMC4604168 (melanoma cell lines).
The list shows a part of the results. Many values rest on one well or one pass, so single values are uncertain.

Key:
Test in all cases: cell count relative to DMSO control; melanoma cells; higher = more viable cells
Settings in all cases: library dose: standard library concentration; 72 h
[1] = test system: SkMel28
[2] = test system: SkMel2
[3] = test system: SkMel30
[4] = test system: SkMel5
[5] = test system: UACC257
[6] = test system: UACC62
[7] = test system: WM115
[8] = test system: WM1716
[9] = test system: WM1745
[10] = test system: WM3526
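Also: cells treated in 1,536-well plates, then fixed and DAPI-stained, with nuclei counted from automated high-throughput microscope images.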

Row | SMILES | cell count [1] | cell count [2] | cell count [3] | cell count [4] | cell count [5] | cell count [6] | cell count [7] | cell count [8] | cell count [9] | cell count [10]
1 | Cc1ccc(Nc2nccc(N(C)c3ccc4c(C)n(C)nc4c3)n2)cc1S(N)(=O)=O [Pazopanib] + Cc1nc(Nc2ncc(C(=O)Nc3c(C)cccc3Cl)s2)cc(N2CCN(CCO)CC2)n1 [dasatanib] (first compound 2 µM, partner dose 0.02 µM) | 69.8% | 108% | 86.6% | 48.1% | 68.8% | 49% | 59.3% | 60.4% | 35.5% | 83.6%
2 | Cc1ccc(Nc2nccc(N(C)c3ccc4c(C)n(C)nc4c3)n2)cc1S(N)(=O)=O [Pazopanib] + C[C@@H]1CCN(C(=O)CC#N)C[C@@H]1N(C)c1ncnc2[nH]ccc12 [CP690550] (first compound 2 µM, partner dose 5 µM) | 77.5% | 91.9% | 93.6% | 67.7% | 68.5% | 86.7% | 111% | 89% | 115% | 78.2%
3 | CC1(C)CCC(c2ccc(Cl)cc2)=C(CN2CCN(c3ccc(C(=O)NS(=O)(=O)c4ccc(N[C@H](CCN5CCOCC5)CSc5ccccc5)c(S(=O)(=O)C(F)(F)F)c4)cc3)CC2)C1 + C=C(c1ccc(C(=O)O)cc1)c1cc2c(cc1C)C(C)(C)CCC2(C)C [Bexarotene] (first compound 2 µM, partner dose 10 µM) | 65.5% | 74.3% | 58.4% | 73.3% | 38.2% | 98.8% | 115% | 54.9% | 11.5% | 72.9%
4 | CC1(C)CCC(c2ccc(Cl)cc2)=C(CN2CCN(c3ccc(C(=O)NS(=O)(=O)c4ccc(N[C@H](CCN5CCOCC5)CSc5ccccc5)c(S(=O)(=O)C(F)(F)F)c4)cc3)CC2)C1 + NCC(=O)Nc1ccc(-n2nc(C(F)(F)F)cc2-c2ccc3c(ccc4ccccc43)c2)cc1 [OSU03012] (first compound 2 µM, partner dose 5 µM) | 5.7% | 5.87% | 9.76% | 17.9% | 21.7% | 45.7% | 69.4% | 57.9% | 2.43% | 17.6%
5 | O=C(/C=C/c1cccnc1)NCCCCC1CCN(C(=O)c2ccccc2)CC1 + Cc1ccc(Nc2nccc(N(C)c3ccc4c(C)n(C)nc4c3)n2)cc1S(N)(=O)=O [Pazopanib] (first compound 0.05 µM, partner dose 2 µM) | 40.2% | 7.37% | 75.3% | 91% | 88.8% | 62.2% | 91.9% | 76.5% | 114% | 85.1%
6 | O=C(/C=C/c1cccnc1)NCCCCC1CCN(C(=O)c2ccccc2)CC1 + C[C@]1(c2nc3c(C(N)=O)cccc3[nH]2)CCCN1 [Veliparib] (first compound 0.05 µM, partner dose 7 µM) | 78.1% | 45.4% | 111% | 91.2% | 90.8% | 62.4% | 45.7% | 90.2% | 88.8% | 126%
7 | Cc1ccc(Nc2nccc(N(C)c3ccc4c(C)n(C)nc4c3)n2)cc1S(N)(=O)=O [Pazopanib] + Cn1c(=O)n(-c2ccc(C(C)(C)C#N)cc2)c2c3cc(-c4cnc5ccccc5c4)ccc3ncc21 [NVP-BEZ235] (first compound 2 µM, partner dose 0.02 µM) | 43.3% | 57.9% | 53.3% | 76.6% | 106% | 64.9% | 75.6% | 66.2% | 82.4% | 59.6%
8 | CC1(C)CCC(c2ccc(Cl)cc2)=C(CN2CCN(c3ccc(C(=O)NS(=O)(=O)c4ccc(N[C@H](CCN5CCOCC5)CSc5ccccc5)c(S(=O)(=O)C(F)(F)F)c4)cc3)CC2)C1 + O=C(O)c1ccc2c(c1)nc(Nc1cccc(Cl)c1)c1ccncc12 [CX4945] (first compound 2 µM, partner dose 2 µM) | 34.2% | 53.8% | 29.8% | 57.7% | 36.1% | 62.6% | 32.4% | 56.2% | 4.04% | 53.7%
9 | O=C(/C=C/c1cccnc1)NCCCCC1CCN(C(=O)c2ccccc2)CC1 + O=C(O)c1ccc2c(c1)nc(Nc1cccc(Cl)c1)c1ccncc12 [CX4945] (first compound 0.05 µM, partner dose 2 µM) | 76.6% | 12.7% | 72.2% | 74.7% | 95.5% | 61.7% | 97.1% | 72% | 69.8% | 86.6%
10 | O=C(/C=C/c1cccnc1)NCCCCC1CCN(C(=O)c2ccccc2)CC1 + O=C(O)[C@@H]1[O][Sb](=[O])([O][Sb]2(=[O])[O][C@H]([C@H](O)CO)[C@H](O)[C@H](C(=O)O)[O]2)[O][C@H]([C@H](O)CO)[C@@H]1O [stibogluconate] (first compound 0.05 µM, partner dose 10 µM) | 76.9% | 10.7% | 107% | 100% | 109% | 88.2% | 114% | 84.2% | 138% | 94.7%
11 | Cc1ccc(Nc2nccc(N(C)c3ccc4c(C)n(C)nc4c3)n2)cc1S(N)(=O)=O [Pazopanib] + COCC[n+]1c2c(n(Cc3cnccn3)c1C)C(=O)c1ccccc1C2=O [YM155] (first compound 2 µM, partner dose 0.002 µM) | 27.6% | 52.1% | 70.4% | 20% | 23.4% | 51.4% | 67.2% | 57.4% | 101% | 37.3%
12 | CC1(C)CCC(c2ccc(Cl)cc2)=C(CN2CCN(c3ccc(C(=O)NS(=O)(=O)c4ccc(N[C@H](CCN5CCOCC5)CSc5ccccc5)c(S(=O)(=O)C(F)(F)F)c4)cc3)CC2)C1 + COc1cc2c(Oc3ccc4[nH]c(C)cc4c3F)ncnc2cc1OCCCN1CCCC1 [cediranib] (first compound 2 µM, partner dose 2 µM) | 79.4% | 90.4% | 65.6% | 103% | 38.4% | 91.4% | 78% | 62.3% | 0.695% | 87.6%
13 | O=C(/C=C/c1cccnc1)NCCCCC1CCN(C(=O)c2ccccc2)CC1 + O=C(Nc1cccc(Cl)c1)Nc1ncc(CCNc2ncnc3ccsc23)s1 [SNS314] (first compound 0.05 µM, partner dose 0.004 µM) | 57.5% | 38% | 100% | 106% | 81.4% | 86.2% | 45.2% | 53.6% | 92.6% | 70.9%
14 | Cc1ccc(Nc2nccc(N(C)c3ccc4c(C)n(C)nc4c3)n2)cc1S(N)(=O)=O [Pazopanib] + Cc1ccc(NC(=O)c2cccc(N(C)C)c2)cc1NC(=O)c1ccc(O)cc1 [ZM336372] (first compound 2 µM, partner dose 10 µM) | 77.8% | 77.9% | 92.5% | 72% | 83.4% | 56.8% | 77.4% | 89.7% | 67.9% | 80.7%
15 | CC1(C)CCC(c2ccc(Cl)cc2)=C(CN2CCN(c3ccc(C(=O)NS(=O)(=O)c4ccc(N[C@H](CCN5CCOCC5)CSc5ccccc5)c(S(=O)(=O)C(F)(F)F)c4)cc3)CC2)C1 + CNC(=O)c1cc(Oc2ccc(NC(=O)Nc3ccc(Cl)c(C(F)(F)F)c3)cc2)ccn1 [sorafenib] (first compound 2 µM, partner dose 2 µM) | 59.7% | 67.1% | 56.7% | 70.8% | 32.9% | 80.2% | 62.1% | 73.7% | 3.94% | 38.4%
16 | O=C(/C=C/c1cccnc1)NCCCCC1CCN(C(=O)c2ccccc2)CC1 + CO[C@@H]1[C@H](N(C)C(=O)c2ccccc2)C[C@H]2O[C@]1(C)n1c3ccccc3c3c4c(c5c6ccccc6n2c5c31)C(=O)NC4 [Midostaurin] (first compound 0.05 µM, partner dose 0.4 µM) | 50.5% | 21.8% | 91% | 57% | 72.4% | 64.3% | 42.6% | 37.2% | 32.4% | 80.2%
17 | O=C(/C=C/c1cccnc1)NCCCCC1CCN(C(=O)c2ccccc2)CC1 + Cn1sc(=O)n(Cc2ccccc2)c1=O [TDZD-8] (first compound 0.05 µM, partner dose 2 µM) | 74.5% | 18.3% | 81.9% | 99.6% | 95.4% | 93% | 86.1% | 66.6% | 88.6% | 87%
18 | CC1(C)CCC(c2ccc(Cl)cc2)=C(CN2CCN(c3ccc(C(=O)NS(=O)(=O)c4ccc(N[C@H](CCN5CCOCC5)CSc5ccccc5)c(S(=O)(=O)C(F)(F)F)c4)cc3)CC2)C1 + CO[C@@H]1[C@H](N(C)C(=O)c2ccccc2)C[C@H]2O[C@]1(C)n1c3ccccc3c3c4c(c5c6ccccc6n2c5c31)C(=O)NC4 [Midostaurin] (first compound 2 µM, partner dose 0.4 µM) | 24.9% | 27.2% | 42.1% | 40.4% | 31.8% | 44.4% | 20.5% | 16.1% | 1.62% | 42.2%
19 | Cc1ccc(Nc2nccc(N(C)c3ccc4c(C)n(C)nc4c3)n2)cc1S(N)(=O)=O [Pazopanib] + CO[C@H]1C[C@@H]2CC[C@@H](C)[C@@](O)(O2)C(=O)C(=O)N2CCCC[C@H]2C(=O)O[C@H]([C@H](C)C[C@@H]2CC[C@@H](OCCO)[C@H](OC)C2)CC(=O)[C@H](C)/C=C(\C)[C@@H](O)[C@@H](OC)C(=O)[C@H](C)C[C@H](C)/C=C/C=C/C=C/1C [everolimus] (first compound 2 µM, partner dose 0.1 µM) | 39.7% | 66.1% | 67.5% | 71.2% | 102% | 61.8% | 62.7% | 70.7% | 86.6% | 64%
20 | Cc1ccc(Nc2nccc(N(C)c3ccc4c(C)n(C)nc4c3)n2)cc1S(N)(=O)=O [Pazopanib] + CS(=O)(=O)CCNCc1ccc(-c2ccc3ncnc(Nc4ccc(OCc5cccc(F)c5)c(Cl)c4)c3c2)o1 [lapatinib] (first compound 2 µM, partner dose 4 µM) | 40% | 77.3% | 63% | 31.5% | 78.3% | 30.1% | 92.3% | 82.2% | 84.1% | 59.6%
